The campaign covered roughly 48,000 compounds. About 120 (0.25%) were called active. Another 4% or so got no clear call; they are omitted. Calls follow the shape of the dose curve; as a rule, active = well fitted activation curve with a large enough effect; inconclusive = small, poorly fitted or top-dose-only effect, or another doubt; inactive = no such curve, though single readings can be large or run the other way. This is one part of the list.

This assay in a line: Primary qHTS for Identification of Small Molecule Activators of Huntingtin-Antisense Promoter Activity. Also: nearly all actives have a fitted effect of over 55% in size. As to conditions: HEK293 HTT-AS promoter firefly luciferase reporter (activity 0% = vehicle and -100% = no light), 24 h; series mostly up to 57.5 µM; activity change, positive = activation: at the top concentration. In a few lines:
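HEK293 cells carrying firefly luciferase reporters were seeded at 2,500 per well in Opti-MEM and cultured for 24 h. They were then treated with compounds at up to 57.5 uM final for 24 h at 37 degrees C before Dual-Glo luminescence readout.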
In general terms: In qHTS, concentration-response curves come from the screen itself.
Consider `COc1ccc(OC)c(S(=O)(=O)NCc2ccc3c(c2)CCN3C(=O)c2cccc(C)c2)c1`, for which the “activity change, positive = activation” value is inactive: -38.2%.

On to `Cc1cccc(N2C(=O)N(Cc3ccc(C(C)(C)C)cc3)c3ccccc3S2(=O)=O)c1`, for which the “activity change, positive = activation” value was inactive: -28.9%.

As for `CCCOCc1cc(CN2CCN(c3ccccc3OC)CC2)c(O)c2ncccc12`, the “activity change, positive = activation” value was inactive: -34.2%.

On to `CCOC(=O)c1c(NC(=O)C(C)Sc2cn(CCNC(=O)c3ccc(OC)cc3)c3ccccc23)sc2c1CCC2` (stereo unspecified), for which the “activity change, positive = activation” value is inactive: -49.7%.

Turning to `Cc1ccc(CSCCNC(=O)CN(c2cccc(C)c2C)S(=O)(=O)c2ccccc2)cc1`, the “activity change, positive = activation” value is inactive: -39.5%.

For `O=C(NCc1ccc(Cl)cc1)c1cnc(N2CCOCC2)c2ccccc12`, the “activity change, positive = activation” value was inactive: -29.2%.

With `COc1ccccc1NC(=O)C1=C(C)Nc2nc(SCC(=O)c3ccc(C)cc3)nn2C1c1ccc(F)cc1` (stereo unspecified), the “activity change, positive = activation” value was inactive: -0.203%.

For `CC1CCCN(S(=O)(=O)c2cc(C(=O)NCCc3ccccc3)n(C)c2)C1` (stereo unspecified), the “activity change, positive = activation” value was inactive: -15.9%.

Take `COCCCOc1ccnc(CS(=O)c2nc3ccccc3[nH]2)c1C` (stereo unspecified): the activity change, positive = activation entry is “inactive”.

As to `COc1ccc(CNC(=O)c2ccc3c(c2)CCN3S(=O)(=O)c2ccccc2)cc1`, the “activity change, positive = activation” value is inactive: -18.4%.

Regarding `Cc1ccccc1CNC(=O)c1ccc(Cn2c(SCc3ccccc3)nc3cccnc32)cc1`, the “activity change, positive = activation” value was inactive: 5.08%.

`CC(C)CCn1c(=O)c2sccc2n2c(CCCC(=O)Nc3ccc(C(C)C)cc3)nnc12`: the “activity change, positive = activation” value was inactive: -8.82%.

Take `COc1ccc(N2CCN(c3nc4ccccc4n4c(C)nnc34)CC2)cc1`: the “activity change, positive = activation” value was inactive: -7.67%.

`CCOC(=O)CC(NS(=O)(=O)c1cc(-c2cc(C)no2)ccc1C)c1ccc(C)cc1` (stereo unspecified): the “activity change, positive = activation” value is inactive: -23.7%.

Take `Nc1cc(C(F)(F)F)c(-c2cc(N3CCOCC3)nc(N3CCOCC3)n2)cn1`: the “activity change, positive = activation” value was inactive: -37.8%.

On to `CCOc1ccc(C(=O)Nc2ccc3nc4c(c(Nc5ccccc5OC)c3c2)CCCC4)cc1`, for which the “activity change, positive = activation” value was inactive: -42.9%.

On to `CCOc1ccc2nc(NC(=O)c3nc(SCc4ccc(C)cc4)ncc3Cl)sc2c1`, for which the “activity change, positive = activation” value is inactive: 13.2%.

Turning to `CC(C)COc1ccc(C(=O)N2CCC(c3nc4ccccc4s3)CC2)cc1`, the “activity change, positive = activation” value was inactive: -14.4%.

As to `Cc1ccc2occ(CC(=O)Nc3c(C(=O)Nc4ccc(Cl)cc4)oc4ccccc34)c2c1`, the “activity change, positive = activation” value is inactive: 9.52%.

For the compound `O=C(CC1N=C2c3ccccc3N=C(SCC(=O)Nc3ccccc3F)N2C1=O)NCc1ccc2c(c1)OCO2` (stereo unspecified), the “activity change, positive = activation” value was inactive: -1.47%.

`Cc1cccc(C)c1NC(=O)CN(C)S(=O)(=O)c1ccc2[nH]c3c(c2c1)CCCC3`: the “activity change, positive = activation” value is inactive: -37.9%.

For `CN(C(=O)CSc1nc2ccccc2[nH]1)c1ccc(F)cc1`, the “activity change, positive = activation” value was inactive: 9.49%.

As for `Cc1ccc(CSc2nncn3c2cc2sccc23)cc1`, the “activity change, positive = activation” value is inactive: -4.15%.

As for `N#Cc1ccccc1NC(=O)C(=O)NCC(c1cccnc1)N1CCc2ccccc21` (stereo unspecified), the “activity change, positive = activation” value was inactive: -17.7%.

Turning to `O=C(Nc1cc(F)ccc1F)c1cnn2c(C(F)F)cc(-c3ccccc3)nc12`, the “activity change, positive = activation” value was inactive: -0.086%.

Regarding `COc1cc(OC)c(NC(=O)C(C)n2nc(-c3ccc(C)cc3)c3c(c2=O)CCCC3)cc1Cl` (stereo unspecified), the “activity change, positive = activation” value is inactive: -35.3%.

Turning to `COC(=O)c1ccc(NC(=O)CSc2nc3cc4ccccc4cc3[nH]2)cc1`, the “activity change, positive = activation” value is inactive: -8.74%.

Regarding `CC(C)NNC(=O)c1ccncc1`, the “activity change, positive = activation” value is inactive: -2.41%.

As for `Cc1ccc(NC(=O)C2CCCN(c3ncnc4onc(C)c34)C2)cc1Cl` (stereo unspecified), the “activity change, positive = activation” value was inactive: -24.3%.

With `O=C(c1ccccc1)c1ccc2nc(N3CCN(c4ccc(F)cc4)CC3)c3nncn3c2c1`, the “activity change, positive = activation” value was inactive: -4.47%.

Take `Cc1ccc(S(=O)(=O)c2nnn3c2nc(N2CCN(c4cccc(C)c4C)CC2)c2ccccc23)cc1C`: the “activity change, positive = activation” value was inactive: -8.6%.

Take `COc1ccccc1-c1cc2nc(C)c(CCC(=O)NC3CCCCC3)c(C)n2n1`: the “activity change, positive = activation” value is inactive: -37.5%.

Take `Cc1ccc(-c2nc(CNC(=O)NC3CCCCC3)c(C)o2)cc1`: the “activity change, positive = activation” value was inactive: -11.1%.

`CC(=O)c1cccc(NC(=O)Nc2cc3c(cc2N2CCCC2)n(C)c(=O)n3C)c1`: the “activity change, positive = activation” value is inactive: -15%.

As for `CCc1ccc(C(=O)Nc2cccc(-c3nc4cc(C(C)C)ccc4o3)c2)cc1`, the “activity change, positive = activation” value is inactive: 6.53%.

Turning to `Cc1ccc(Cl)cc1NC(=O)c1ccc2nc(CCc3ccccc3)oc2c1`, the “activity change, positive = activation” value was inactive: -12.5%.

`CCn1cc(C(=O)NCc2ccccc2Cl)c(=O)c2cc(S(=O)(=O)N3CCCCCC3)ccc21`: the “activity change, positive = activation” value was inactive: 0.159%.

Turning to `CCOc1ccc(Nc2oc(-c3ccc(COc4ccc(C)cc4)o3)nc2C#N)cc1`, the “activity change, positive = activation” value is inactive: -13.3%.

`COc1ccc(NC(=O)c2nnn(CC(=O)Nc3cc(C)cc(C)c3)c2N)c(OC)c1`: the “activity change, positive = activation” value was inactive: -8.09%.

`CCN(C(=O)c1cc(S(=O)(=O)N2CCCC2)cn1C)c1ccc(OC)cc1`: the “activity change, positive = activation” value was inactive: -1.19%.

`COc1ccc(Cn2c(SCc3ccc(C(=O)NCc4cccs4)cc3)nc3ccncc32)cc1`: the “activity change, positive = activation” value was inactive: -30%.

Take `CSCC[C@H](NC(=O)[C@H](Cc1c[nH]c2ccccc12)NC(=O)CCNC(=O)OC(C)(C)C)C(=O)N[C@@H](CC(=O)O)C(=O)N[C@@H](Cc1ccccc1)C(N)=O`: the “activity change, positive = activation” value was inactive: -1.66%.

On to `O=S(=O)(c1ccccc1)c1nc(-c2ccco2)oc1SCc1ccc(F)cc1`, for which the “activity change, positive = activation” value is inactive: -5.49%.

Take `CCCCC(=O)Nc1ccc(C(=O)OCc2cc(=O)n3ccsc3n2)cc1`: the “activity change, positive = activation” value is inactive: -34%.

Consider `Cc1ccc(NC(=O)Cn2c(=O)cc(-c3ccccc3)c3c(C)nn(C)c32)c(Cl)c1`, for which the “activity change, positive = activation” value is inactive: -7.48%.

Take `CCOC(=O)c1sc2cccc(F)c2c1S(=O)(=O)Nc1ccccc1F`: the “activity change, positive = activation” value is inactive: -8.89%.

The values are drawn from PubChem BioAssay AID1508624 (National Center for Advancing Translational Sciences (NCATS), 2021).
